# Measurements taken from the antibiotic and cytotoxicity screens of Wong et al. (2023).
# The list shows a part of the results.
# Tested on: HepG2
# Assay: cytotoxicity call (relative viability < 0.9)
# Conditions: 10 µM
row,Compound,cytotoxicity call
1,CS(=O)(=O)O.OC(CCN1CCCCC1)(c1ccccc1)c1ccccc1,inactive
2,C[C@H](CO)N1C[C@H](C)[C@H](CN(C)Cc2ccc(Oc3ccccc3)cc2)Oc2ccc(NS(=O)(=O)c3ccc(Cl)cc3)cc2CC1=O,active
3,C[C@@H]1CN([C@@H](C)CO)C(=O)Cc2cc(NS(C)(=O)=O)ccc2O[C@H]1CN(C)Cc1ccc(C(=O)Nc2ccccc2N)cc1,inactive
4,C[C@H](CO)N1C[C@H](C)[C@H](CN(C)S(=O)(=O)c2ccc(F)cc2)Oc2ccc(NS(=O)(=O)c3cn(C)cn3)cc2CC1=O,inactive
5,C[C@@H]1CCCCO[C@H](CN(C)C(=O)Nc2ccc3c(c2)OCO3)[C@H](C)CN([C@H](C)CO)C(=O)c2cc(NC(=O)Nc3ccc(F)cc3)ccc2O1,inactive
6,C[C@H](CO)N1C[C@H](C)[C@@H](CN(C)Cc2cccc(C(=O)O)c2)Oc2ncc(C#CCN(C)C)cc2C1=O,inactive
7,Cn1cnc(S(=O)(=O)N2C[C@H](O)COC[C@H]3O[C@H](CC(=O)NCc4cccc(F)c4)CC[C@@H]32)c1,inactive
8,COCC#Cc1cnc2c(c1)C(=O)N([C@@H](C)CO)C[C@@H](C)[C@H](CN(C)C(=O)Nc1ccccc1OC)O2,inactive
9,C[C@H](CO)N1C[C@H](C)[C@@H](CN(C)C(=O)Nc2cccc3ccccc23)OCCCC[C@H](C)Oc2ccc(NC(=O)Nc3ccc4c(c3)OCO4)cc2C1=O,inactive
10,C[C@@H]1CN([C@@H](C)CO)C(=O)c2cc(NC(=O)Nc3ccc(C(F)(F)F)cc3)ccc2O[C@@H](C)CCCCO[C@H]1CN(C)C(=O)Cc1ccccc1,inactive
11,Cc1noc(C)c1S(=O)(=O)N(C)C[C@@H]1Oc2ccc(NS(=O)(=O)c3ccc(F)cc3)cc2CC(=O)N([C@H](C)CO)C[C@@H]1C,inactive
12,COc1ccccc1CNC(=O)C[C@H]1C[C@@H]2c3cc(NC(=O)Nc4ccc(C(F)(F)F)cc4)ccc3O[C@@H]2[C@@H](CO)O1,inactive
13,C[C@@H]1CCCCO[C@@H](CN(C)C(=O)c2ccccc2)[C@@H](C)CN([C@H](C)CO)C(=O)c2cc(NC(=O)NC3CCCCC3)ccc2O1,inactive
14,CC(C)NC(=O)Nc1cccc2c1O[C@@H](CN(C)S(=O)(=O)c1cccs1)[C@@H](C)CN([C@H](C)CO)C2=O,inactive
15,COc1ccc(CN(C)C[C@H]2OCCCC[C@H](C)Oc3ccc(NC(=O)CCC(F)(F)F)cc3C(=O)N([C@H](C)CO)C[C@@H]2C)cc1,inactive
16,Cn1cnc(S(=O)(=O)N2C[C@H](O)COC[C@@H]3O[C@@H](CC(=O)N4CCN(c5ccccc5)CC4)CC[C@H]32)c1,inactive
17,C[C@@H]1CCCCO[C@H](CN(C)Cc2ccc3c(c2)OCO3)[C@@H](C)CN([C@H](C)CO)C(=O)c2cc(NC(=O)NC3CCCCC3)ccc2O1,inactive
18,C[C@@H]1CN([C@H](C)CO)C(=O)c2cccc(NC(=O)Nc3cccc4ccccc34)c2O[C@@H]1CN(C)S(=O)(=O)c1ccc(F)cc1,inactive
19,C[C@@H]1CCCCO[C@H](CN(C)C(=O)NC2CCCCC2)[C@@H](C)CN([C@@H](C)CO)C(=O)c2cc(NS(=O)(=O)c3cccs3)ccc2O1,inactive
20,C[C@H]1CN([C@@H](C)CO)C(=O)c2cccc(NS(=O)(=O)c3ccc(F)cc3)c2O[C@H]1CN(C)Cc1ccc(Cl)c(Cl)c1,inactive
21,Nc1ccc(-n2cnnn2)cc1,inactive
22,COc1cccc(CN(C)C[C@H]2OCc3ccccc3-c3c(n(C)c4ccccc34)C(=O)N([C@@H](C)CO)C[C@@H]2C)c1,inactive
23,O=C(C[C@H]1C[C@H]2c3cc(NC(=O)Cc4ccncc4)ccc3O[C@H]2[C@H](CO)O1)NCCN1CCCCC1,inactive
24,COc1ccc(NC(=O)Nc2ccc3c(c2)C(=O)N([C@@H](C)CO)C[C@@H](C)[C@H](CN(C)Cc2ccccc2)OCCCC[C@H](C)O3)cc1,active
25,CCNc1ncnc2c1nnn2C,inactive
26,C[C@@H]1CCCCO[C@@H](CN(C)S(=O)(=O)c2cccs2)[C@@H](C)CN([C@H](C)CO)C(=O)c2cc(NC(=O)Nc3ccc(C(F)(F)F)cc3)ccc2O1,inactive
27,C[C@@H]1CCCCO[C@@H](CN(C)C(=O)Nc2ccc3c(c2)OCO3)[C@@H](C)CN([C@@H](C)CO)C(=O)c2cc(NC(=O)Cc3ccccc3)ccc2O1,inactive
28,C[C@@H]1CN([C@H](C)CO)C(=O)CCCn2cc(nn2)CO[C@H]1CN(C)C(=O)Nc1cccc(Oc2ccccn2)c1,inactive
